Assay results as given in paper PMC6949220.
No constants are given. Whether binding was seen depends on the method and setting. In cells and extracts the contact can be indirect.

Sequences of proteins named here, by UniProt entry; tags and fusion partners are left off. A change or cut given only in a name is not applied to a line headed by its entry. Residues count along the entry.
UniProt P40763: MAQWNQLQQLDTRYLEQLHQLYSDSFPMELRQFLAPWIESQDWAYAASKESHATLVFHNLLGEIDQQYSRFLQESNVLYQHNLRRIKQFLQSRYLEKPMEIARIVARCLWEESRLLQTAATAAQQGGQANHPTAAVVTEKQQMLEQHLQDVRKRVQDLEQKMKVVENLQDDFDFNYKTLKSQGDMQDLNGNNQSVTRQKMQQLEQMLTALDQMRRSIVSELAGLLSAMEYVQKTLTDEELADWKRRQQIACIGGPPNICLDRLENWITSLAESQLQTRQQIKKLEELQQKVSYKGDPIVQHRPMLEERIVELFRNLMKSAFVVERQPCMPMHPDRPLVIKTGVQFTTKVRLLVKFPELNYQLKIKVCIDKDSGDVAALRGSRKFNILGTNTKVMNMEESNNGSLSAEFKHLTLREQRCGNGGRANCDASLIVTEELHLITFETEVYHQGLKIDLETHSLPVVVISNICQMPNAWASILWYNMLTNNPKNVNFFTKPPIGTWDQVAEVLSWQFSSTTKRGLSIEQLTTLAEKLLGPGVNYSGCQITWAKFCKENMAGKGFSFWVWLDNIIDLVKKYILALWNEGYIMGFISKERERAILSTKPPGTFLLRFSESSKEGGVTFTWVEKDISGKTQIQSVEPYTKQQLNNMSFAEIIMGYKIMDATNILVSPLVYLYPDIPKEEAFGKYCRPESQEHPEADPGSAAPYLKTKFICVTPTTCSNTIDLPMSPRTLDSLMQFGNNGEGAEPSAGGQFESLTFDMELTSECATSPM
UniProt P28827, residues 21-1452: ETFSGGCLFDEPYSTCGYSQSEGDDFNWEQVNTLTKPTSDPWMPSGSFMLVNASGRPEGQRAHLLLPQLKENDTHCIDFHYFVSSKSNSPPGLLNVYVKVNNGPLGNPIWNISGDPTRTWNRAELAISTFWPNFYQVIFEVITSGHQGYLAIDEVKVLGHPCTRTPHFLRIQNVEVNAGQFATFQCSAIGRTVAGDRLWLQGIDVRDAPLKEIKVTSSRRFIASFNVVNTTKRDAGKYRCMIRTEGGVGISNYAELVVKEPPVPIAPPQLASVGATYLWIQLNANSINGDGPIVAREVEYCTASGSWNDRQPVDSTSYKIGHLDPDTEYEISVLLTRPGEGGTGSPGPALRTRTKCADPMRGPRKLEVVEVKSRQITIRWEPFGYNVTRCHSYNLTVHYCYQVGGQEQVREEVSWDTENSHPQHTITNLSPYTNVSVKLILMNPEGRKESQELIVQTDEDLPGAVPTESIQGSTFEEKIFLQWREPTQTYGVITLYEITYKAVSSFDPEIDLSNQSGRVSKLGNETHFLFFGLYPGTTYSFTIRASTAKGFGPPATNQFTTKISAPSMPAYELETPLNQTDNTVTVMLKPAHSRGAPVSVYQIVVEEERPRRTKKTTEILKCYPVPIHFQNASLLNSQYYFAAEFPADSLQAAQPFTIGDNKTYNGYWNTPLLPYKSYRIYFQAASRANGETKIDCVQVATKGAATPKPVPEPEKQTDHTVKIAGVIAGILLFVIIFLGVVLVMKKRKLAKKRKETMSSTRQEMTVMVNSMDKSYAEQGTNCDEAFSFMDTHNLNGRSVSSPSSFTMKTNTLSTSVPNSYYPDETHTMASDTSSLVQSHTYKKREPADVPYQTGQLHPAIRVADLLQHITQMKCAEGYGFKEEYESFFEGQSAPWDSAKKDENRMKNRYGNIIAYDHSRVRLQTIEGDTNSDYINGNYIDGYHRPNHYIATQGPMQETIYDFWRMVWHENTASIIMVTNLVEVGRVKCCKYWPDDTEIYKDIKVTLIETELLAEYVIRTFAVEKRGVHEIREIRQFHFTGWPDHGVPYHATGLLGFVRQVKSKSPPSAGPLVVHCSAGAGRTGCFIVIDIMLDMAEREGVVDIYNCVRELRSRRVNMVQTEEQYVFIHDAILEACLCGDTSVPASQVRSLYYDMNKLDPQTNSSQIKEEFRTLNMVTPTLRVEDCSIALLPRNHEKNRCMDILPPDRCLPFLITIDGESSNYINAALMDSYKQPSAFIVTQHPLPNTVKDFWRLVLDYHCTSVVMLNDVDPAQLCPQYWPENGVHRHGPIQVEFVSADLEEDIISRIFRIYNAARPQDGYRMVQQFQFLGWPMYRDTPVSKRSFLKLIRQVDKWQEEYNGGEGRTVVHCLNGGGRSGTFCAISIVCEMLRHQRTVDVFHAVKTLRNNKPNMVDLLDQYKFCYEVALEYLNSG

Target: HA-STAT3 Y705F (UniProt P40763)
Test: co-IP; tagged proteins co-transfected (HEK293T where stated); lysates precipitated with anti-HA, anti-Flag or anti-Myc, immunoblot

Substance: Myc-DDK-tagged PTPRM (protein tyrosine phosphatase receptor mu) (from UniProt P28827 21-1452)
- binding: no binding
